These results are taken from PubChem BioAssay AID1963447 (Molecular Pharmacology Branch, DTP, NCI, 2024).

The test system of the assay is 885512-296-R-J2-PDC complex spheroid growth, % test/control. The experiment in a line: Anticancer human tumor 885512-296-R-J2-PDC patient-derived breast carcinoma cell line growth inhibition [Asc]. The following applies: for viability, T/C: stronger effect = lower value. The protocol:
Multicellular complex tumor spheroid response to apoptosis pathway targeting inhibitors Alrizomadlin, Pelcitoclax, and Dasminapant in combination with a variety of drugs and investigational agents in selected tumor cell lines
The MDM2 inhibitor alrizomadlin, the Bcl-2/Bcl-xL inhibitor pelcitoclax, and the IAPs inhibitor dasminapant were evaluated both individually and in combination with standard of care and investigational anticancer small molecules within a complex spheroid model of solid tumors. . Complex spheroids include a stromal component modeled by human endothelial cells (HUVEC) and fibroblasts modeled by human mesenchymal stem cells (MSCs). The concentration ranges selected for each drug and investigational agent were based upon clinically achievable concentrations if the clinical Cmax of the agent was known.
Compounds. The drugs and investigational agents: alrizomadlin (APG-115; NSC831270), pelcitoclax (APG-1252; NSC835773), dasminapant (APG-1387;NSC834197), TAK-243 (NSC785004), copanlisib (NSC809693), olaparib (NSC753686), talazoparib (NSC767125), cobimetinib (NSC 768068), eltanexor (KPT-8602, NSC 794443), abemaciclib (NSC 768073), sotorasib (NSC818433), adagrasib (NSC 831453), MRTX-1133 (NSC 836407), Iadademestat (ORY1001, NSC 806812), and RMC-4630 (NSC839698), were obtained from the NCI Developmental Therapeutics Program Chemical Repository. The FDA-approved anticancer drug set is available from the Developmental Therapeutics Program at https://dtp.cancer.gov/organization/dscb/obtaining/available plates.htm. […] The stock solutions were prepared in dimethyl sulfoxide (DMSO, Sigma-Aldrich, St. Louis, MO, cat. D2650) at 800-fold the tested concentration and stored at -70 degrees C prior to their use. All drugs and investigational agents were tested over a range starting from a high concentration at or near the clinical Cmax and decreasing in half-log increments. If the clinical Cmax for an agent had not been determined, the highest concentration tested was 10 microM.
The patient-derived cancer (PDC) cell lines include five colon adenocarcinomas: 186277-243-T-J2-PDC, 616215-338-R-J1-PDC, 439559-082-T-J2-PDC, 463943-066-T-J2-PDC, and 519858-162-T-J1-PDC; three pancreatic carcinomas: 323965-272-R-J2-PDC, 521955-158-R6-J3-PDC, and 521955-158-R2-J5-PDC; two uterine sarcomas: 327498-152-R-J2-PDC and 993429-296-R-J1-PDC; two rhabdomyosarcomas: 755483-174-R-J1-PDC and 772245-204-R-J1-PDC; two soft tissue sarcomas: 126254-015-R-J1-PDC and 494315-158-R-J1-PDC; two malignant fibrous histiocytomas: 317291-083-R-J1-PDC and 596521-263-R-J1-PDC; two breast carcinomas: 171881-019-R-J1-PDC and 885512-296-R-J2-PDC; and one ovarian carcinoma: 6556581-035-R-J-PDC were obtained from the NCI PDMR, (https://pdmr.cancer.gov). The established cell lines HSSY-2 synovial sarcoma (RRID:CVCL 8719), SYO-1 synovial sarcoma (RRID:CVCL_7146), MPNST malignant peripheral neural sheath tumor were obtained from the Sloan Kettering Institute. The following established cell lines were purchased from the American Type Culture Collection (ATCC, Manassas, VA), Sor the received from the NCI repository:, PANC-1 pancreatic carcinoma (CRL-1469, RRID:CVCL_0480), OVCAR-5 ovarian carcinoma (RRID:CVCL_1628), OVCAR-8 ovarian carcinoma (RRID:CVCL_1629), , MCF-7 breast carcinoma (CRL-12584, RRID:CVCL_0031), MDA-MB-231 breast carcinoma (CRL-12532, RRID:CVCL_0062), NCI-H1876 small cell lung carcinoma (CRL-5902, RRID:CVCL_1503), NCI-H510A small cell lung carcinoma (HTB-184, RRID:CVCL_1565), NCI-H1417 (CRL-5869, RRID:CVCL_1469), and NCI-H196 small cell lung carcinoma (CRL-5823, RRID:CVCL_1509). Dr. Peter Houghton (Greehey Children's Cancer Research Institute, University of Texas Health Science Center, San Antonio, TX) provided Rh-18 rhabdomyosarcoma (RRID:CVCL_1659). Pooled donor human umbilical vein endothelial cells (HUVEC, Lonza, cat. CC-2519) and human mesenchymal stem cells (hMSC, Lonza, cat. PT-2501) were purchased from Lonza (Walkersville, MD).
Cell Culture. […]

Some entries of the source have several records that differ or are many. This list holds those alone. There may be further records. Values given together repeat one measurement (runs, samples, wells, individuals or studies). Additions like (4×) stand for listed records that agree. Dates in brackets are months of testing.
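Also: spheroids exposed to compounds for seven days.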
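For viability, T/C in this document: 100% = DMSO vehicle control wells.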

In the case of `CNC(C)C(=O)NC1CN(S(=O)(=O)c2cccc(S(=O)(=O)N3CCC4CCC(C(=O)NC(c5ccccc5)c5ccccc5)N4C(=O)C(NC(=O)C(C)NC)C3)c2)CCC2CCC(C(=O)NC(c3ccccc3)c3ccccc3)N2C1=O` (centres undefined), the viability, T/C is, setting by setting: (compound alone 0.01 µM) 93%, 69.2% [2022-09] and 74.7, 90.3, 87.1, 94.6, 85.3, 77.3, 70, 89.3, 70.2, 93.3, 81.3, 91.2, 88% [2022-10]; (compound alone 0.0316 µM) 103%, 83.9% [2022-09] and 99, 92.5, 93.7, 101 (2×), 80.8, 85.6, 87.2, 95.5, 77.9, 99.5, 97.2, 110% [2022-10]; (compound alone 0.1 µM) 113%, 103% [2022-09] and 95.9, 98.2, 99.4, 106, 100, 101, 78.5, 99.7, 84.5, 93.7, 98.7, 96.4, 121% [2022-10]; (compound alone 0.316 µM) 125%, 112% [2022-09] and 108 (2×), 94.1, 107, 109, 101, 103, 95.5, 106 (2×), 114, 111, 96.8% [2022-10]; (compound alone 1 µM) 97.1%, 97.7% [2022-09] and 106 (2×), 87.3, 105, 104, 83.6, 103, 88, 99.1, 101, 99.2, 109, 115% [2022-10].
As for `CCN1C(C(=O)NC23CCC(C(=O)O)(CC2)CC3)C(c2cccc(Cl)c2F)C2(C(=O)Nc3cc(Cl)ccc32)C12CCCCC2` (centres undefined), the viability, T/C (compound alone 0.03 µM) was 91, 93.3, 96.2, 87.2, 101, 92.4, 76.4, 95.9, 93.1, 77.9, 94.1, 92.9, 111, 91.8% [2022-09] and 91.6% [2022-10]; the viability, T/C (compound alone 0.3 µM) is 79, 105, 86.5, 68.6, 89.5, 87.2, 75.7, 99, 77.3, 104, 88.9, 89.3, 82.1, 86% [2022-09] and 82.5% [2022-10]. For the same compound, the IC50 (compound alone, run of 09/27/2022) is reported as 2.14 µM, 2.64 µM, 2.37 µM, > 3 µM, 2.73 µM, 2.05 µM, 1.99 µM, 2.4 µM, 2.58 µM, 2.41 µM.
For the compound `Cc1c(S(C)(=O)=O)c(-c2cc(F)cc(N3CCN(c4ccc(NS(=O)(=O)c5ccc(NC(CCN6CCC(C(=O)OCCCP(=O)(O)O)CC6)CSc6ccccc6)c(S(=O)(=O)C(F)(F)F)c5)cc4)CC3)c2)c(-c2ccc(Cl)cc2)n1C(C)C` (centres undefined), the viability, T/C (compound alone 3.16 µM) is 98.6, 97.7, 93.6, 100 (3×), 96.9, 97.1, 103, 115, 110, 93, 91.6, 88.8%.
